Test results from PubChem BioAssay AID1345082 (National Center for Advancing Translational Sciences (NCATS), 2018).
Out of some 94,000 compounds screened, about 4,000 (4.3%) were called active. Inconclusive means that the source gave no clear call. Such entries were picked first, then a sample of the others. The call rests on the fitted dose curve; in most records, active means well fitted inhibition curve with a large enough effect; inconclusive means small, poorly fitted or top-dose-only effect; inactive means no such curve, though single readings can be large or run the other way. A potency beside an inconclusive call is a rough fit, not a confirmed value.

Test: Cytotoxic Profiling in NIH 3T3 Cell Line of Diverse Libraries Using Quantitative High-Throughput Screening; further: nearly all actives have a fitted effect of over 55% in size
Details: NIH 3T3 viability, CellTiter-Glo ATP luminescence, 48-72 h; activity change, negative = cytotoxicity: at 96.7 µM (top of the series); series mostly up to 96.7 µM
Procedure, shortened: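 Cytotoxicity was measured by CellTiter-Glo ATP luminescence after 48 or 72 h compound exposure at 37 °C. Mouse NIH 3T3 fibroblasts were seeded at 400 cells/well and dosed by 23 nL pin transfer.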
On the % scale 0 is the no-effect control and ±100 the full control effect; potency means the concentration at half of the fitted maximal effect; tags describe the fitted curve by direction and shape.

SMILES	Potency	activity change, negative = cytotoxicity	outcome
O=C(c1ccc2c(c1)OCO2)N1CCCN(c2cc(-c3ccc(Br)cc3)[nH]n2)CC1	inconclusive: 20 µM [inhibitor, full curve, poor fit]		
O=C(NCCc1ccccc1)C1CCCCN1Cc1ccc(-c2ccsc2)cc1 (configuration not stated)	inconclusive: 15.8 µM [inhibitor, full curve, poor fit]		
O=C(c1cccc(Cl)c1)N1CCN(c2cc(-c3cccs3)[nH]n2)CC1	inconclusive: 22.4 µM [inhibitor, full curve]		
COC[C@H]1CCCN1C(=O)C[C@@H]1O[C@H](CNC(=O)Nc2cccc(F)c2)[C@@H](O)[C@H]1O		inactive: 2.67% [at 174 µM]	
O=C(NCCc1ccccn1)c1cnc2c(c1)N([S+](=O)([O-])c1cccnc1)CCC2	inconclusive: 100 µM [inhibitor, partial curve, poor fit]		
CN(CCc1noc(C2CC2)n1)c1ncncc1C(=O)O		inactive: 3.9%	
Cc1cccc(-c2nc3ccc(C(=O)N4CCOCC4)cc3o2)n1	active: 22.4 µM		
CC(C)CN[C@H]1[C@H](O)[C@@H](N2CCC(Cc3ccccc3)CC2)[C@@H]2OC[C@H]1O2	inconclusive: 89.1 µM [inhibitor, partial curve]		
COc1cccc(C(=O)N2CCC(C(=O)N3CC[C@@](C)(O)[C@@H](O)C3)CC2)c1		inactive: -12.6%	
Cc1[nH]cnc1CN1CC[C@H](N2CCN(C)CC2)[C@H](CCC(=O)O)C1	inconclusive: 100 µM [inhibitor, partial curve, poor fit]		
CCN(CC)S(=O)(=O)c1ccc(-c2nc(C)ccc2OC)cc1	inconclusive: 44.7 µM [inhibitor, partial curve, poor fit]		
CC1=C(C(=O)OC(C)(C)C)C(c2ccc(Cl)cc2)N2C(CC(=O)N3CCCC3)=CSC2=N1 (configuration not stated)	inconclusive: 50.1 µM [inhibitor, partial curve, poor fit]		
Cc1cccc(OCC(=O)NC(C)C(=O)N2CCN(c3ccccn3)CC2)c1 (configuration not stated)	inconclusive: 79.4 µM [inhibitor, single point]		
CC(=O)NCc1nnc2n1C(C(=O)NCc1cccc(C(F)(F)F)c1)CC2 (configuration not stated)		inactive: 3%	
CC1(COc2ccc3[nH]ccc3c2)COc2ccc(C(=O)NCC3CCOCC3)cc2N1 (configuration not stated)		inactive: -16.6% [at 138 µM]	
CC(C)CNc1ccc2c(n1)C(C)(C(=O)Nc1ccncc1)CN(Cc1ccccc1)C2 (configuration not stated)	active: 22.4 µM		
CN(C)CCNC(=O)c1nc(-c2cccc(N3CCOCC3)c2)cc2c1ccn2C	inconclusive: 89.1 µM [inhibitor, partial curve]		
CCN1CC(c2ccccc2)CC2(CCN(C(=O)c3cc[nH]c3C)CC2)C1 (configuration not stated)	inconclusive: 89.1 µM [inhibitor, single point]		
O=C(c1cccnc1)N1CC(CNc2ccccc2)C2(C1)CN(c1ccccc1)C2 (configuration not stated)	inconclusive: 112 µM [inhibitor, single point]		
COCc1cn(C[C@H]2C[C@@H](NC(=O)c3ccc(C#N)cc3)[C@H](O)[C@@H]2O)nn1			inactive [at 174 µM]
c1ccc(CCCN2CC[C@H](c3nc4ccccc4[nH]3)C2)cc1	inconclusive: 56.2 µM [inhibitor, partial curve, poor fit]		
O=C1CN(Cc2cccc(Cl)c2)CCN1c1ccc(Cl)nn1	inconclusive: 56.2 µM [inhibitor, partial curve, poor fit]		
Cc1cc(=O)n(CC(=O)NCCc2ccc(Cl)cc2)c(N2CCc3ccccc3C2)n1	active: 25.1 µM		

SMILES	Potency	activity change, negative = cytotoxicity	outcome
COc1ccc(S(=O)(=O)N2CCC(Cc3nncn3-c3ccccc3)CC2)cc1		inactive: -12.3%	
CN1c2cc(C(=O)N3CCN(c4ccccc4Cl)CC3)ccc2C(=O)N2CCCCC21 (configuration not stated)	inconclusive: 70.8 µM [inhibitor, single point]		
Cc1ccc(OCC(=O)N2CCC[C@H]2c2nc(-c3ccc(C)cc3)no2)cc1	inconclusive: 70.8 µM [inhibitor, partial curve, poor fit]		
COC(=O)c1ccc2c(c1)nc1n2[C@@H](CNC2CCCCC2)COC1		inactive: -21.6% [at 138 µM]	
O=C(NCc1ccc(Cl)cc1)c1ccn2cncc2c1	inconclusive: 56.2 µM [inhibitor, partial curve, poor fit]		
O=C(NCCc1ccccc1F)c1nc2sccn2c1-c1cccnc1	inconclusive: 50.1 µM [inhibitor, partial curve, poor fit]		
COc1ncccc1-c1nccc2c(=O)cc(N(C)C)oc12	inconclusive: 56.2 µM [inhibitor, partial curve, poor fit]		
Cc1cccc(CC(=O)N2C[C@@H](CO)[C@H](c3ccncc3)C2)c1		inactive: -5.12%	
Cc1cc(C(=O)N2CC[C@H](NS(=O)(=O)c3cn(C)cn3)C[C@H]2C(=O)N[C@@H](Cc2cccs2)C(N)=O)n(C)n1		inactive: 0.127%	
CCOc1nccn2c(-c3ccc(CN4CCNC(=O)C4)cc3)cnc12	inconclusive: 89.1 µM [inhibitor, partial curve, poor fit]		
CCN1CCN(CCNC(=O)Cc2cccn2-c2ccc(C)cc2)CC1		inactive: 4.63%	
c1ccc(-c2nnc3ccc(N4CCc5ccccc5C4)nn23)nc1	inconclusive: 39.8 µM [inhibitor, full curve]		
CC(=O)N1Cc2ccccc2NC(=O)C12CCNC2 (configuration not stated)			inactive [at 138 µM]
COC1C(=O)N(CC2CC2)C12CCN(S(=O)(=O)c1cccc3cccnc13)CC2 (configuration not stated)	inconclusive: 44.7 µM [inhibitor, partial curve, poor fit]		
O=C(CCc1cccnc1)N1CC(CNc2ccccc2)C2(C1)CN(c1ccccc1)C2 (configuration not stated)	inconclusive: 100 µM [inhibitor, partial curve, poor fit]		
COc1ccc(-c2nnc(C[C@@H]3C[C@@H](C(C)C)[C@H](CNCc4cccnc4)C=C3C)o2)cc1	inconclusive: 44.7 µM [inhibitor, partial curve, poor fit]		
CC(C)Oc1cccc(-c2n[nH]c3c2CC(=O)N(c2ccccc2)C3)c1	inconclusive: 35.5 µM [inhibitor, partial curve]		
CCOCC(=O)N1CCC2(CC1)CC(CO)N(C(=O)c1ccccc1)C2 (configuration not stated)		inactive: 3.58%	
O=C(Nc1ccc([C@@H](O)[C@H]2COCC(=O)N2Cc2ccc(C(F)(F)F)cc2)cc1)C1CCCC1	inconclusive: 56.2 µM [inhibitor, partial curve, poor fit]		
Cn1ccnc1CN1CCNc2cc(Nc3ccccc3)ncc2C1	inconclusive: 14.1 µM [inhibitor, full curve]		
O=C(NCCc1ccc(Cl)cc1)c1ccc2nc(-c3cccnc3Cl)oc2c1	inconclusive: 56.2 µM [inhibitor, partial curve, poor fit]		
O=C(C[C@@H]1CCNC[C@@H]1Cc1cc(COc2ccccc2)on1)Nc1ccccc1	active: 31.6 µM		
O=C(c1ccccc1)N1CCC(c2nn(-c3ccc(F)cc3)c(=O)[nH]2)CC1	inconclusive: 70.8 µM [inhibitor, single point]		

SMILES	Potency	activity change, negative = cytotoxicity	outcome
CC(C)(C)NC(=O)C[C@@H]1CCNC[C@@H]1Cc1cc(-c2ccc(F)cc2)on1	inconclusive: 126 µM [inhibitor, partial curve, poor fit]		
CCC(=O)Nc1cccc(C2OC(=O)N(Cc3ccccc3)C2C(=O)Nc2ccc(F)cc2)c1 (configuration not stated)	inconclusive: 50.1 µM [inhibitor, single point]		
COc1ccc(C(=O)N2CCC(=O)N(CCC#N)C[C@H]3COc4cc(OC)ccc4[C@H]32)cc1	inconclusive: 50.1 µM [inhibitor, partial curve, poor fit]		
COCC1CN(C2CCC2)CC12CCN(C(=O)CCn1cc(C)cn1)CC2 (configuration not stated)		inactive: -5.34%	
C=CCNC(=O)C[C@@H]1CCN(C(=O)C(C)(C)C)C[C@@H]1CC		inactive: -0.922% [at 174 µM]	
Cc1ccccc1S(=O)(=O)N1CCCC(CCC(=O)NCCN(C)C2CCCCC2)C1 (configuration not stated)	inconclusive: 70.8 µM [inhibitor, single point]		
Cc1nnc2n1CCC(N(C)S(=O)(=O)c1cn(C)cn1)CC2 (configuration not stated)		inactive: -6.06%	
COc1ncc(-c2n[nH]c3c2CC(=O)N(Cc2ccccc2)C3)cn1	active: 25.1 µM		
COc1ccc(-c2ccc(C(=O)NCc3cccc(C(F)(F)F)c3)cc2)nn1		inactive: -18.1%	
COC(=O)c1ccc2nc(C[C@@H]3C[C@@H](C(C)C)[C@H](CNCc4ccc(OC)cc4O)C=C3C)[nH]c2c1	active: 25.1 µM		
COCCCNC(=O)C1CCCN1Cc1cccc(-c2ccc(C)c(Cl)c2)c1 (configuration not stated)	active: 39.8 µM		
Cc1ccc(CC(=O)N2CCN(c3cc(C(F)(F)F)ncn3)CC2)cc1	inconclusive: 28.2 µM [inhibitor, partial curve]		
Cc1ncsc1CN1CC[C@H]2C(=O)NCCCCCCN(Cc3ccncc3)[C@@H]2C1		inactive: -24.6%	
O=C(c1scc2c1OCCO2)N1Cc2ccccc2C(O)C1 (configuration not stated)		inactive: -5.16%	
COCCN1C(=O)[C@@H]2C[C@@H](CN2Cc2ccccn2)Oc2ccccc21	inconclusive: 50.1 µM [inhibitor, partial curve, poor fit]		
COC(=O)N1CCN(C(=O)c2nc3cccnc3n(C3CC3)c2=O)CC1		inactive: -16.4%	
COc1ccc2nc([C@H]3CCN(Cc4cccc(OC(F)(F)F)c4)C3)[nH]c2c1	active: 89.1 µM		
O=C(Nc1ccc(-c2nnc3n2CCCC3)cc1)c1ccco1		inactive: 3.33%	
COc1ccc2nc3n(c2c1)[C@@H](CNC(=O)c1ccc(C#N)cc1)COC3	active: 89.1 µM		
COC(=O)c1ccc(CN2C(=O)[C@@H]3C[C@@H](O)CN3C3(CN(Cc4ccc(OC)cc4)C3)C2=O)cc1		inactive: -10.9%	
CN(C)c1nc2c(c(=O)[nH]1)CCN(Cc1ccc(C(F)(F)F)cc1)CC2		inactive: -2.86%	
